One experiment deals with human TGFβ1 (human, UniProt P01137 fragment). Nature of the experiment: cell-based or functional assay.
Experiment [1] has as its target T1, recombinant human VEGF 165 (human, UniProt P15692-4 27-191).
T1 construct: Bought protein
T1 sequence (looked up): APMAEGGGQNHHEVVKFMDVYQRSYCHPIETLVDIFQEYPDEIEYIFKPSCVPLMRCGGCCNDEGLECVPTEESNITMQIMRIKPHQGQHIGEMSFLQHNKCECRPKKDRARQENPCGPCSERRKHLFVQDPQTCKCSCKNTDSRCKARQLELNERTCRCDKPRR
Nature of the experiment: blocking ELISA: VEGF-165 coated on the plate, binding of recombinant human VEGFR-2-hu IgG1-His Tag is blocked. As to the method:
Briefly, 0.5 ug/ml of recombinant human VEGF-165 (R&D #293-VE-050/CF) in carbonate-bicarbonate buffer was coated to the wells in a 96-well assay plate and incubated overnight at 4° C. The wells were then washed 3 times with 0.05% Tween 20 in PBS (wash buffer), blocked with 1% BSA in PBS for 1 hour at room temperature, and washed 3 times with wash buffer. 50 μl 5-fold serially diluted antibodies were then added to wells in the plate and incubated for 30 minutes at room temperature. […] 100 μl anti-His tag HRP (1:10,000) was then added and the plates were incubated for 40 mins at room temperature and washed 3 times with wash buffer.
(ELISA stands for enzyme-linked immunosorbent assay.)

Experiment [2] has as its target T1, recombinant human VEGF 165. Nature of the experiment: cell-based or functional assay.
Experiment [3] deals with T1, recombinant human VEGF 165. The experiment can be described thus: cell-based or functional assay. This is another data set of the same source.
In experiment [4] the target is T2, human PD-L1 on transfected CHOK1 cells (human, UniProt Q9NZQ7).
T2 construct: also called Human PD-L1 transfected CHOK1 cells
T2 sequence (Q9NZQ7 19-290 limits assumed): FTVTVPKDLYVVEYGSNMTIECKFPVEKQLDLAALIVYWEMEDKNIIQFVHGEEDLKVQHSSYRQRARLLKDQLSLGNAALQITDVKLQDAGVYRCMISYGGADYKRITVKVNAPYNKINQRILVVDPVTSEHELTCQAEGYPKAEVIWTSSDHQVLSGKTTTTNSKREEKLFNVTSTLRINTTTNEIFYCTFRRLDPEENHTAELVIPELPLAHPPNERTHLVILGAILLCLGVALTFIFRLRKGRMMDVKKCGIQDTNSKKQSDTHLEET
The experiment can be described thus: cell-based blocking assay (flow cytometry, iQue): FITC labeled human PD-1-Fc binding to human PD-L1 transfected CHOK1 cells, antibody titrated. (In general: A flow cytometer gives signals particle by particle.)

For orientation: IC50 means the concentration that gives 50% inhibition.

Sequence of human TGFβ1 (P01137 279-390 limits assumed): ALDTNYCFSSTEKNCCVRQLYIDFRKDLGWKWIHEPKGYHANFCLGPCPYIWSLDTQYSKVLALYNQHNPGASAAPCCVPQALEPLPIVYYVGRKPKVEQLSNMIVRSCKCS

B1: TS-ZPLB-1 (other)
heavy: SDTGRPFVEMYSEIPEIIHMTEGRELVIPCRVTSPNITVTLKKFPLDTLIPDGKRIIWDSRKGFIISNATYKEIGLLTCEATVNGHLYKTNYLTHRQTNTIIDVVLSPSHGIELSVGEKLVLNCTARTELNVGIDFNWEYPSSKHQHKKLVNRDLKTQSGSEMKKFLSTLTIDGVTRSDQGLYTCAASSGLMTKKNSTFVRVHEKGGGGSGGGGSGGGGSQVQLVQSGAEVKKPGASVKVSCKASGYTFTSYWMHWVRQAPGQGLEWMGMIHPNSGGNNYNEKFKSRVTMTRDTSISTAYMELSRLRSDDTAVYYCARSWYGSSPYYFDYWGQGTLVTVSSASTKGPSVFPLAPCSRSTSESTAALGCLVKDYFPEPVTVSWNSGALTSGVHTFPAVLQSSGLYSLSSVVTVPSSSLGTKTYTCNVDHKPSNTKVDKRV[human IgG4 Fc with S228P (EU numbers) left out]GGGGSGGGGSGGGGSIPPHVQKSVNNDMIVTDNNGAVKFPQLCKFCDVRFSTCDNQKSCMSNCSITSICEKPQEVCVAVWRKNDENITLETVCHDPKLPYHDFILEDAASPKCIMKEKKKPGETFFMCSCSSDECNDNIIFSEEYNTSNPD
light: DIQMTQSPSSLSASVGDRVTISCRASQDIDNYLNWYQQKPGKAPKLLIKYTSRLHSGVPSRFSGSGSGTDFTLTISSLQPEDFATYFCQQGYTLPWTFGGGTKVEIKRTVAAPSVFIFPPSDEQLKSGTASVVCLLNNFYPREAKVQWKVDNALQSGNSQESVTEQDSKDSTYSLSSTLTLSKADYEKHKVYACEVTHQGLSSPVTKSFNRGEC
Turning to B1, the “IC50; luciferase signal of TGFβ/SMAD SBE Reporter-HEK293 cells stimulated with human TGFβ1” value in the experiment with human TGFβ1 was found to be 0.11 nM. Also, the IC50 in experiment [1] stood at 1.57 nM.

B2: Bi-ZPL-3 (bispecific antibody, human IgG1, kappa)
heavy: QVQLVQSGAEVKKPGASVKVSCKASGYTFTSYWMHWVRQAPGQGLEWMGMIHPNSGGNNYNEKFKSRVTMTRDTSISTAYMELSRLRSDDTAVYYCARSWYGSSPYYFDYWGQGTLVTVSSASTKGPSVFPLAPSSKSTSGGTAALGCLVKDYFPEPVTVSWNSGALTSGVHTFPAVLQSSGLYSLSSVVTVPSSSLGTQTYICNVNHKPSNTKVDKRV[human IgG1 Fc left out]GGGGSGGGGSGGGGSGGGGSSDTGRPFVEMPSEIPEIIHMTEGRELVIPCRVTSPEITVTLKKFPLDTLIPDGKRIIWDSRKGFIISEATYKEIGLLTCEATVNGHLYKTNYLTHRQTNTIIDVVLSPSHGIELSVGEKLVLECTARTELNVGIDFNWEYPSSKHQHKKLVNRDLKTQSGSEMKKFLSTLTIDGVTRSDQGLYTCAASSGLMTKKESTFVRVHEK
light: DIQMTQSPSSLSASVGDRVTISCRASQDIDNYLNWYQQKPGKAPKLLIKYTSRLHSGVPSRFSGSGSGTDFTLTISSLQPEDFATYFCQQGYTLPWTFGGGTKVEIKRTVAAPSVFIFPPSDEQLKSGTASVVCLLNNFYPREAKVQWKVDNALQSGNSQESVTEQDSKDSTYSLSSTLTLSKADYEKHKVYACEVTHQGLSSPVTKSFNRGEC
B2: the “IC50 (read off the curve)” value in experiment [2] was roughly 0.2 nM. For the same molecule, the “IC50 (VEGF-induced luciferase signal, cell based VEGF neutralization assay on VEGFR-2 reporter cells)” value in experiment [3] worked out at 0.18 nM.

B3: Bi-ZPL-1 (bispecific antibody, human IgG4 S228P, kappa)
heavy: SDTGRPFVEMYSEIPEIIHMTEGRELVIPCRVTSPNITVTLKKFPLDTLIPDGKRIIWDSRKGFIISNATYKEIGLLTCEATVNGHLYKTNYLTHRQTNTIIDVVLSPSHGIELSVGEKLVLNCTARTELNVGIDFNWEYPSSKHQHKKLVNRDLKTQSGSEMKKFLSTLTIDGVTRSDQGLYTCAASSGLMTKKNSTFVRVHEKGGGGSGGGGSGGGGSQVQLVQSGAEVKKPGASVKVSCKASGYTFTSYWMHWVRQAPGQGLEWMGMIHPNSGGNNYNEKFKSRVTMTRDTSISTAYMELSRLRSDDTAVYYCARSWYGSSPYYFDYWGQGTLVTVSSASTKGPSVFPLAPCSRSTSESTAALGCLVKDYFPEPVTVSWNSGALTSGVHTFPAVLQSSGLYSLSSVVTVPSSSLGTKTYTCNVDHKPSNTKVDKRV[human IgG4 Fc with S228P (EU numbers) left out]
light: DIQMTQSPSSLSASVGDRVTISCRASQDIDNYLNWYQQKPGKAPKLLIKYTSRLHSGVPSRFSGSGSGTDFTLTISSLQPEDFATYFCQQGYTLPWTFGGGTKVEIKRTVAAPSVFIFPPSDEQLKSGTASVVCLLNNFYPREAKVQWKVDNALQSGNSQESVTEQDSKDSTYSLSSTLTLSKADYEKHKVYACEVTHQGLSSPVTKSFNRGEC
notes: also called TS-ZPL-1; Bi-ZPL-1 molecules
B3: the IC50 in experiment [4] stood at 3.3 nM.

For the origin of these results see patent US20200002439A1 (GENSUN BIOPHARMA, published 2020).
